The values that follow come from PMC5307367.

Protein sequences, listed by entry. Tags and fused reporters are not part of them. Lines headed by an entry give the natural chain unless they say otherwise; changes in a name come on top.
UniProt Q14680: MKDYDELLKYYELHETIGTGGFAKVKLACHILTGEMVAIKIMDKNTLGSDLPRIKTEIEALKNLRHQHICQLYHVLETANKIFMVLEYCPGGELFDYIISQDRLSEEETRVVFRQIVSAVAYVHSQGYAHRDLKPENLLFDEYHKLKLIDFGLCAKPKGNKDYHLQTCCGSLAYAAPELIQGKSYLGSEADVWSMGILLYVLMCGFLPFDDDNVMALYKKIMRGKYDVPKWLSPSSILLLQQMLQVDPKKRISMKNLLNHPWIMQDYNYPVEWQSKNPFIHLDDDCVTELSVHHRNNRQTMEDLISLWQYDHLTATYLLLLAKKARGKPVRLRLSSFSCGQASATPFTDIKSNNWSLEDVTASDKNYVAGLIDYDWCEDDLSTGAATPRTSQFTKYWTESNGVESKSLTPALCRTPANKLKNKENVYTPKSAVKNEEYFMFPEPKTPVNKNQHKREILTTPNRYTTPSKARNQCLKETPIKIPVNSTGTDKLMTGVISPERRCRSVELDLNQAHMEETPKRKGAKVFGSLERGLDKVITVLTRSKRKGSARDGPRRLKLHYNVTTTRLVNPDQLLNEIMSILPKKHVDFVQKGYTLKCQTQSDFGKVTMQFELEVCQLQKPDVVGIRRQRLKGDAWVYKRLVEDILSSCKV
UniProt Q61846: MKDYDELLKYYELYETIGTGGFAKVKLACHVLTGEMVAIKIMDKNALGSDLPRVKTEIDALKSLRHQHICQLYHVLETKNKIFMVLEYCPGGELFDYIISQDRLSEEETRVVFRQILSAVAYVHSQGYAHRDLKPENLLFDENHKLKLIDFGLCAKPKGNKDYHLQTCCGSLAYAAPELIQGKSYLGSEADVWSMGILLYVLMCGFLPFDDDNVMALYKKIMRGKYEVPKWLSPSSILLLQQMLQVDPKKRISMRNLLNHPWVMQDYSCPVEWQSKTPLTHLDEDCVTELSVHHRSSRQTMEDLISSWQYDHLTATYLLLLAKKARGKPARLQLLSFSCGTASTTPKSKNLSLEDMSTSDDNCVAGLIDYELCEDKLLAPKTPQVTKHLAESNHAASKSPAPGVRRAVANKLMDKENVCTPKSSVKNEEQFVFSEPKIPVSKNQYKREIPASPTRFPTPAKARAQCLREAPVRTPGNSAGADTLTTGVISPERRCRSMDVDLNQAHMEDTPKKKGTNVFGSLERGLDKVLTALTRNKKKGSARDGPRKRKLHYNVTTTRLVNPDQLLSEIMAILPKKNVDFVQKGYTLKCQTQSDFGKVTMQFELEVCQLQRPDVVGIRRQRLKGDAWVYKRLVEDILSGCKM

No constants are given. Whether binding was seen depends on the method and setting. In cells and extracts the contact can be indirect. Some entries that bind do so weakly or less than the wild type. For some of these results: Sequences can lack the tags named with a protein.

Assay [1] deals with endogenous MPK38 (MELK) of HEK293 cells (human (endogenous in HEK293)) (UniProt Q14680). The assay is described as follows: co-IP; endogenous proteins of HEK293 cells; immunoprecipitation with an anti-MPK38 antibody (rabbit preimmune serum as control), immunoblot with an anti-ZPR9 antibody; lysates treated with H2O2, DTT or beta-ME on ice for 0.5-1 h (Fig. 3A), or cells treated with H2O2, thapsigargin, ionomycin, TNF-alpha, TGF-beta1, 5FU or doxorubicin (Fig. 4). (In general: In western blotting, separated proteins are transferred to a membrane and probed.)

The target of assay [2] is GST-tagged MPK38 C269S/C286S (mouse) (UniProt Q61846). The assay is described as follows: pull-down; in vivo binding assay: HEK293 cells co-transfected with a GST-tagged and a FLAG-tagged protein, GST precipitates (GST purification) of the lysate, immunoblot with an anti-FLAG antibody (Fig. 3B).
Assay [3] deals with GST-tagged MPK38 C269S (mouse) (UniProt Q61846). The description is as above.
The target in assay [4] is GST-tagged MPK38, wild type (mouse) (UniProt Q61846). The assay is described as above.
The target in assay [5] is GST-tagged MPK38 C286S (mouse) (UniProt Q61846). The assay is described as above.
For assay [6], the target named is GST-tagged MPK38, wild type (mouse) (UniProt Q61846). The assay is described as follows: pull-down; HEK293 cells transfected with the indicated expression vectors, with or without wild-type or T252A ZPR9; lysates precipitated with glutathione-Sepharose beads (GST purification), immunoblot with an anti-FLAG antibody (Fig. 8B and 8C, left panels).
Assay [7] has as its target endogenous MPK38 (MELK) of HEK293 cells (human (endogenous in HEK293)) (UniProt Q14680). The assay is described as follows: co-IP; HEK293 cells transfected with wild-type or T252A ZPR9 or without; MPK38 immunoprecipitates (IP: anti-MPK38) of the endogenous protein, immunoblot with anti-Mdm2, anti-Trx or the indicated antibodies (Fig. 8B and 8C right panels, 8D lower panels).

B1: endogenous ZPR9 of HEK293 cells (protein, UniProt Q969S3 1-477)
chain: MATYTCITCRVAFRDADMQRAHYKTDWHRYNLRRKVASMAPVTAEGFQERVRAQRAVAEEESKGSATYCTVCSKKFASFNAYENHLKSRRHVELEKKAVQAVNRKVEMMNEKNLEKGLGVDSVDKDAMNAAIQQAIKAQPSMSPKKAPPAPAKEARNVVAVGTGGRGTHDRDPSEKPPRLQWFEQQAKKLAKQQEEDSEEEEEDLDGDDWEDIDSDEELECEDTEAMDDVVEQDAEEEEAEEGPPLGAIPITDCLFCSHHSSSLMKNVAHMTKDHSFFIPDIEYLSDIKGLIKYLGEKVGVGKICLWCNEKGKSFYSTEAVQAHMNDKSHCKLFTDGDAALEFADFYDFRSSYPDHKEGEDPNKAEELPSEKNLEYDDETMELILPSGARVGHRSLMRYYKQRFGLSRAVAVAKNRKAVGRVLQQYRALGWTGSTGAALMRERDMQYVQRMKSKWMLKTGMKNNATKQMHFRVQVRF
Turning to B1, the binding result in assay [1] is recorded as “binds”.

B2: FLAG-tagged ZPR9, wild type (protein, UniProt Q969S3 1-477)
chain: MATYTCITCRVAFRDADMQRAHYKTDWHRYNLRRKVASMAPVTAEGFQERVRAQRAVAEEESKGSATYCTVCSKKFASFNAYENHLKSRRHVELEKKAVQAVNRKVEMMNEKNLEKGLGVDSVDKDAMNAAIQQAIKAQPSMSPKKAPPAPAKEARNVVAVGTGGRGTHDRDPSEKPPRLQWFEQQAKKLAKQQEEDSEEEEEDLDGDDWEDIDSDEELECEDTEAMDDVVEQDAEEEEAEEGPPLGAIPITDCLFCSHHSSSLMKNVAHMTKDHSFFIPDIEYLSDIKGLIKYLGEKVGVGKICLWCNEKGKSFYSTEAVQAHMNDKSHCKLFTDGDAALEFADFYDFRSSYPDHKEGEDPNKAEELPSEKNLEYDDETMELILPSGARVGHRSLMRYYKQRFGLSRAVAVAKNRKAVGRVLQQYRALGWTGSTGAALMRERDMQYVQRMKSKWMLKTGMKNNATKQMHFRVQVRF
Take B2: the binding result in assay [2] is recorded as “no binding”; in assay [3] it was “binds weakly”; in assay [4], “binds”; in assay [5], “binds weakly”.

B3: Trx, transfected (protein, UniProt P10599 1-105)
chain: MVKQIESKTAFQEALDAAGDKLVVVDFSATWCGPCKMIKPFFHSLSEKYSNVIFLEVDVDDCQDVASECEVKCMPTFQFFKKGQKVGEFSGANKEKLEATINELV
In the case of B3, the binding entry in assay [6] is “binds”.

B4: endogenous Trx of HEK293 cells (protein, UniProt P10599 1-105)
chain: MVKQIESKTAFQEALDAAGDKLVVVDFSATWCGPCKMIKPFFHSLSEKYSNVIFLEVDVDDCQDVASECEVKCMPTFQFFKKGQKVGEFSGANKEKLEATINELV
For B4, in assay [7], the binding entry is recorded as “binds”.
